Source: PubChem BioAssay AID1768 (National Center for Advancing Translational Sciences (NCATS), 2009)
About 620 (0.23%) of roughly 270,000 compounds were called active. The inconclusive results got no clear call from the source; some entries with a clear call stand among them for comparison. The call rests on the fitted dose curve; in most records, active means well fitted inhibition curve with a large enough effect in the polarisation, with a control signal flat (not every such curve was filed as active); inconclusive means small, poorly fitted or top-dose-only effect, or effect the other way, or a change in a side signal; inactive means no such curve, though single readings can be large or run the other way; the % refers to the polarisation. Where the call is inconclusive, the potency comes from a doubtful curve fit. “Side channel” marks fits to a control or component signal instead of the main read-out.

target: Menin (Homo sapiens) (UniProt O00255); experiment: qHTS Assay for Inhibitors Targeting the Menin-MLL Interaction in MLL Related Leukemias: Competition With Texas Red Labeled MLL-derived Mutant Peptide; conditions: fluorescence polarization; series mostly up to 61.6 µM
Potency means the concentration at half of the fitted maximal effect; tags describe the fitted curve by direction and shape or compound fluorescence and quenching.

Chain of UniProt O00255 (O00255 whole entry, looked up): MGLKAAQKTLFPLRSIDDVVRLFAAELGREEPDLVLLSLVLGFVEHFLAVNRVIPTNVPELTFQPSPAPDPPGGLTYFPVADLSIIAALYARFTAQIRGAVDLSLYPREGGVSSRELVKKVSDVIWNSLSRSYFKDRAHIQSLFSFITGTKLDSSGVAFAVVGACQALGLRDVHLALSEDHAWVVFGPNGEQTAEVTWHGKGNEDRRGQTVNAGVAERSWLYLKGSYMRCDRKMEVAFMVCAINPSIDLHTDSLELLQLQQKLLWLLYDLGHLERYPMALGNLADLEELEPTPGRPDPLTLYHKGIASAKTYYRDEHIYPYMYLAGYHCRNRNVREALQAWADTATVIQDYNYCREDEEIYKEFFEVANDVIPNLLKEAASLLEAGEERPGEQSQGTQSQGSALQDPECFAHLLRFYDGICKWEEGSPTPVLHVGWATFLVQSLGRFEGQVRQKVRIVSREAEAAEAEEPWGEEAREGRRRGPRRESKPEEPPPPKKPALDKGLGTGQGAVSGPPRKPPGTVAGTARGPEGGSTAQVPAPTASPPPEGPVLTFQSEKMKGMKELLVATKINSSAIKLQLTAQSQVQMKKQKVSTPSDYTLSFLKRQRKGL

Potency, inactive:
CC(SC1=NCCS1)C(=O)Nc1nnc(-c2ccc(F)cc2)s1 (stereo not given)
CCN1C(=O)N/C(=C/c2cc(C)n(Cc3ccccc3)c2C)C1=O
CCCCOc1ncnc2c1[nH]c1ccc(OCC)cc12

Potency, inconclusive:
Cc1cccc(C)c1N/C=C/c1onc(C)c1[N+](=O)[O-] 39.8 µM [inhibitor, single point]
Cc1cc(C)cc(OC(=O)CCN2C(=O)C3C4C=CC(C5CC45)C3C2=O)c1 (stereo not given) 6.31 µM [fluorescent, side channel, full curve, poor fit]
Cc1ccc(NS(=O)(=O)c2ccc(NC(=O)C(C)Sc3ccc(Cl)cc3)cc2)c(C)c1 (stereo not given) 31.6 µM [quencher, side channel, single point]
Cc1cc(C)cc(NC(=O)NCC2CCN(Cc3cc(C)ccc3C)CC2)c1 39.8 µM [inhibitor, single point]
COc1ccc2ccccc2c1/C=N/N1C(=O)CSC1=S 2.82 µM [quencher, side channel, full curve]
Cc1ccc(OCC(=O)NCCNC(=O)c2cnccn2)cc1 39.8 µM [inhibitor, single point]
O=C(COc1ccc([N+](=O)[O-])cc1)N/N=C/c1cc([N+](=O)[O-])ccc1N1CCOCC1 25.1 µM [quencher, side channel, partial curve]
COC(=O)C1=C(C)NC2=C(C(=O)c3ccccc32)C1c1ccc(-c2ccc(C(=O)O)cc2)o1 (stereo not given) 15.8 µM [quencher, side channel, partial curve]
N#CCOc1nc(N2CCCCC2)nc(N2CCCCC2)n1 15.8 µM [fluorescent, side channel, partial curve, poor fit]
O=C(CSCc1ccc(Cl)cc1Cl)Nc1ccc(O)cc1C(=O)O 25.1 µM [quencher, side channel, partial curve]
CC(=O)Nc1nc(C)c(-c2csc(Nc3cccc([N+](=O)[O-])c3)n2)s1 15.8 µM [quencher, side channel, partial curve]
CCOC(=O)Cc1csc(N/N=C/c2cccc([N+](=O)[O-])c2)n1 0.891 µM [quencher, side channel, full curve, poor fit]
O=C(NCc1cccs1)c1cc(-c2ccccn2)nc2ccc(Br)cc12 10 µM [quencher, side channel, partial curve]
Oc1[nH]c2ccccc2c1N=Nc1cccc(Cl)c1 12.6 µM [quencher, side channel, partial curve]
COc1cc([N+](=O)[O-])ccc1N=Nc1c(N)[nH]n(-c2ccccc2)c1=O 28.2 µM [quencher, side channel, single point]
Cc1cccc(NC(=O)CN2CCN(CC(=O)Nc3ccc(-c4ccccc4)cc3)CC2)c1C 11.2 µM [inhibitor, partial curve]
CCOc1ccc2[nH]c(=O)c(CN(CCN3CCCC3)C(=S)Nc3ccccc3OCC)cc2c1 2.51 µM [fluorescent, side channel, full curve]
COC(=O)c1ccccc1NC(=S)N(Cc1ccc2c(c1)OCO2)Cc1cc2ccc(C)cc2[nH]c1=O 25.1 µM [inhibitor, single point]
O=S1(=O)N=C(Nc2ccc(N3CCOCC3)c(Cl)c2)c2ccccc21 25.1 µM [quencher, side channel, single point]
Cc1ccc(-c2ncccc2OC(=O)C23CC4CC(CC(C4)C2)C3)cc1 39.8 µM [inhibitor, single point]
O=C(NCc1nnc(SCc2ccc(F)cc2)n1-c1ccc(F)cc1)C12CC3CC(CC(C3)C1)C2 15.8 µM [fluorescent, side channel, partial curve]
CCOc1ccc(S(=O)(=O)Nc2nc3ccc(OC)cc3s2)cc1 28.2 µM [quencher, side channel, single point]
O=C(CSc1nnc(SCc2ccccc2)s1)N/N=C/C=C\c1ccco1 28.2 µM [quencher, side channel, single point]
O=C(Nc1cccc(Cl)c1)C1=Cc2cc(Cl)ccc2OC1 25.1 µM [quencher, side channel, partial curve]
COC(=O)c1cccc(NC(=O)c2ccc(OC)c(Cl)c2)c1 22.4 µM [quencher, side channel, single point]
CSc1ccc(C#N)cc1NC(=O)c1ccc(Cl)nc1 39.8 µM [fluorescent, side channel, single point]
COc1ccc(-c2ccc(-c3cc(=O)oc4cc(OC)c(OC)c(OC)c34)cc2)cc1F 28.2 µM [fluorescent, side channel, partial curve]
CCCCCCn1c(N2CCN(c3ccccc3)CC2)nc2c1c(=O)n(C)c(=O)n2C 31.6 µM [inhibitor, single point]
CC1CC(=O)c2c(cc3c(-c4c(O)cc(O)c5c(O)c6c(cc45)OC(C)CC6=O)c(O)cc(O)c3c2O)O1 (stereo not given) 3.98 µM [quencher, side channel, full curve]
COc1ccc(Nc2cc(C)c3cc([N+](=O)[O-])ccc3n2)cc1 7.94 µM [quencher, side channel, partial curve]
O=C(COc1ccc(N2C(=O)c3ccccc3C2=O)cc1)c1ccccc1 39.8 µM [inhibitor, single point]
O=C(N/N=C/c1cccc2ccccc12)c1cc2ccccc2o1 28.2 µM [quencher, side channel, single point]
